In PubChem BioAssay AID1963958 (Molecular Pharmacology Branch, DTP, NCI, 2024):
The source holds more than one record for some entries. The other results are left out here. An entry can have further records. Values that stand side by side are repeats (runs, samples, wells, individuals or studies).

Test system: MDA-MB-231 multicell spheroids, viability
Assay: Anticancer human tumor MDA-MB-231 cell line growth inhibition [PI3K];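 also: spheroids exposed to agents for seven days before reading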;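 as to viability, T/C: percent of vehicle control luminescence with DMSO treated spheroids as 100%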
Details: for viability, T/C: stronger effect = lower value; for IC50: compound alone
Source text: Combinatorial screen of targeted agents with the PI3K inhibitors inavolisib, alpelisib, duvelisib, and copanlisib in multi-cell type tumor spheroids
A high-throughput screen of multi-cell type tumor spheroids was designed to identify active combinations of targeted small molecules and PI3K pathway inhibitors. Complex spheroids include a stromal component modeled by human endothelial cells (HUVEC) and fibroblasts modeled by human mesenchymal stem cells (MSCs). The concentration ranges selected for each drug and investigational agent were based upon clinically achievable concentrations if the clinical Cmax of the agent was known.
Compounds. The drugs and investigational agents: inavolisib (NSC800729), alpelisib (NSC765974), duvelisib (NSC772469), copanlisib (NSC816437), ipatasertib (NSC767898), afuresertib (NSC778305), talazoparib (NSC767125), sapanisertib (NSC764658), selumetinib (NSC741078), tovorafenib (DAY101, NSC766906), vemurafenib (NSC761431), ravoxertinib (NSC781343), sotorasib (NSC818433), MRTX1133 (NSC 836407), abemaciclib (NSC 768073), palbociclib (NSC758247), venetoclax (NSC 766270), SY5609 (NSC837396), enzalutamide (NSC755605), and darolutamide (NSC825331), were obtained from the National Cancer Institute (NCI) Developmental Therapeutics Program Chemical Repository. The FDA-approved anticancer drug set is available from the NCI Developmental Therapeutics Program. […] The stock solutions were prepared in dimethyl sulfoxide (DMSO, Sigma-Aldrich, St. Louis, MO, cat. D2650) at 800-fold the tested concentration and stored at -70 degrees C prior to their use. All drugs and investigational agents were tested over a range starting from a high concentration at or near the clinical Cmax and decreasing in half-log increments. If the clinical Cmax for an agent had not been determined, the highest concentration tested was 10 microM.
Cell Culture. All cells were maintained in an incubator at 37 degrees C and 5% CO2 with 95% humidity. The PDC lines were cultured according to standard operating procedures established by the NCI PDMR (https://pdmr.cancer.gov/sops/default.htm). All PDCs were thawed and cultured in Matrigel-coated flasks prepared with a working solution of 1X Ham's F-12 nutrient mix, without supplementation (Invitrogen, Waltham, MA, cat. 11765054), 100 U/mL penicillin-streptomycin (Invitrogen, cat. 15140122), and 2.5% Matrigel (Corning Inc., Corning, NY, cat. 354248) for the first three passages. The 354836-022-R-J1-PDC, 475296-252-R-J1-PDC, and 997726-040-R-J2-PDC lines were cultured in 6A media, which includes advanced DMEM/F-12 (Thermo Fisher Scientific, cat. 12634028), 10 mM HEPES (Thermo Fisher Scientific, cat. 15630080), 1X GlutaMAX supplement (Thermo Fisher Scientific, cat. 35050061), 0.1 mg/mL primocin (InvivoGen, San Diego, CA, cat. ant-pm-2), 10% defined fetal bovine serum, heat inactivated (HyClone Laboratories Inc., Logan, UT, cat. SH30070.03HI), 50% L-WRN conditioned media (ATCC, cat. CRL-3276), 1.25 mM N-Acetyl-L-cysteine (Sigma-Aldrich, cat. A9165), 10 mM nicotinamide (Sigma-Aldrich, cat. N0636), 1X B-27 supplement (Thermo Fisher Scientific, cat. 17504044), 1X N-2 supplement (Thermo Fisher Scientific, cat. 17502048), and 10 microM Y-27632 dihydrochloride (Tocris Bioscience, Bristol, United Kingdom, cat. 1254). The 624824-186-R-J2-PDC line was cultured in 6C/Colon 1B media, which includes all 6A media components plus 50 ng/mL human EGF recombinant protein (Thermo Fisher Scientific, cat. PHG0311). […]

## C=CC(=O)N1CCN(c2nc(=O)n(-c3c(C)ccnc3C(C)C)c3nc(-c4c(O)cccc4F)c(F)cc23)C(C)C1 (stereo not given)
Compound alone 1 µM
  viability, T/C: 101, 107, 130, 123%

## CCN1CCN(Cc2ccc(Nc3ncc(F)c(-c4cc(F)c5nc(C)n(C(C)C)c5c4)n3)nc2)CC1
  IC50: 361 nM, 213 nM, > 1 µM, 410 nM

## C[C@@H](NC(=O)c1ncnc(N)c1Cl)c1ncc(C(=O)Nc2cc(C(F)(F)F)c(Cl)cn2)s1
Compound alone 0.1 µM
  viability, T/C: 89.2, 102, 130, 120%
Compound alone 0.316 µM
  viability, T/C: 82.3, 81, 107, 116%
Compound alone 1 µM
  viability, T/C: 78.8, 90.5, 96.1, 104%

## C#Cc1c(F)ccc2cc(O)cc(-c3ncc4c(N5CC6CCC(C5)N6)nc(OCC56CCCN5CC(F)C6)nc4c3F)c12 (stereo not given)
Compound alone 3.16 µM
  viability, T/C: 69.4, 81, 88.1, 95.5%

## CC1(C)CCC(CN2CCN(c3ccc(C(=O)NS(=O)(=O)c4ccc(NCC5CCOCC5)c([N+](=O)[O-])c4)c(Oc4cnc5[nH]ccc5c4)c3)CC2)=C(c2ccc(Cl)cc2)C1
  IC50: 6.56 µM, 6.93 µM, 7.24 µM, > 10 µM
Compound alone 10 µM
  viability, T/C: 16.1, 23.3, 27.6, 107%

## CC(Nc1ncnc2nc[nH]c12)c1cc2cccc(Cl)c2c(=O)n1-c1ccccc1 (stereo not given)
Run of 05/09/2023
  IC50: > 10 µM, 9.92 µM, 7.98 µM, 7.71 µM

## Cn1ncnc1[C@H]1c2n[nH]c(=O)c3cc(F)cc(c23)N[C@@H]1c1ccc(F)cc1
Compound alone 0.001 µM
  viability, T/C: 104, 81, 110, 97.4%
